Reference: patent US7935343B2

Target: human IL-13 (human)
Sequence (chain, as listed by the source): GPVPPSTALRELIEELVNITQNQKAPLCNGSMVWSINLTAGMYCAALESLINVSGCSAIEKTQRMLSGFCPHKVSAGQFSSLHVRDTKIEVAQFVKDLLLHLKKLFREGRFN

B1: BAK167A11 scFv (scFv, V domains shown)
VH: [in this place about 100 residues]VGAAGEGYYGYWGRGTLVTVSS
VL: NFMLTQPHSVSESPGKTVTISCTRSSGSIASNYVQWYQQRPGSAPTTVIYDDNQRPSGVPDRFSGSIDSSSNSASLTISGLKTEDEADYYCQSYDSNNDVFGGGTKVTVL
Q: For B1, which IC50, TF-1 cell proliferation is on record?
A: 111 nM
